Positions count from the first letter of the chain named.
B1: huAb3v2.5-CZ (conjugate)
heavy: EVQLVQSGAEVKKPGSSVKVSCKASGYTFSSYWMHWVRQAPGQGLEWIGLIHPESGSTNYNEMFKNRATLTVDRSTSTAYMELSSLRSEDTAVYYCAGGGRLYFDYWGQGTTVTVSSASTKGPSVFPLAPSSKSTSGGTAALGCLVKDYFPEPVTVSWNSGALTSGVHTFPAVLQSSGLYSLSSVVTVPSSSLGTQTYICNVNHKPSNTKVDKKV[letters of human IgG1 Fc with changes omitted]
light: DIVMTQSPLSLPVTPGEPASISCRSSQSLVHSNRDTYLRWYLQKPGQSPQLLIYKVSNRFSGVPDRFSGSGSGTDFTLKISRVEAEDVGVYYCSQSTHVPYTFGGGTKVEIKRTVAAPSVFIFPPSDEQLKSGTASVVCLLNNFYPREAKVQWKVDNALQSGNSQESVTEQDSKDSTYSLSSTLTLSKADYEKHKVYACEVTHQGLSSPVTKSFNRGEC
B2: huAb3v2.6-CZ (conjugate)
heavy: EVQLVQSGAEVKKPGSSVKVSCKASGYTFSSYWMHWVRQAPGQGLEWIGLIHPESGSTNYNEMFKNRATLTVDRSTSTAYMELSSLRSEDTAVYYCAGGGRLYFDYWGQGTTVTVSSASTKGPSVFPLAPSSKSTSGGTAALGCLVKDYFPEPVTVSWNSGALTSGVHTFPAVLQSSGLYSLSSVVTVPSSSLGTQTYICNVNHKPSNTKVDKKV[letters of human IgG1 Fc with changes omitted]
light: B1 light with R34Q
B3: huAb13v1-AAA (conjugate)
heavy: EVQLQESGPGLVKPSETLSLTCAVTGYSITSGYSWHWIRQFPGNGLEWMGYIHSSGSTNYNPSLKSRISISRDTSKNQFFLKLSSVTAADTAVYYCAGYDDYFEYWGQGTTVTVSSASTKGPSVFPLAPSSKSTSGGTAALGCLVKDYFPEPVTVSWNSGALTSGVHTFPAVLQSSGLYSLSSVVTVPSSSLGTQTYICNVNHKPSNTKVDKKV[letters of human IgG1 Fc with changes omitted]
light: DIQMTQSPSSLSASVGDRVTITCKASQNVGFNVAWYQQKPGKSPKALIYSASYRYSGVPSRFSGSGSGTDFTLTISSLQPEDFAEYFCQQYNWYPFTFGQGTKLEIKRTVAAPSVFIFPPSDEQLKSGTASVVCLLNNFYPREAKVQWKVDNALQSGNSQESVTEQDSKDSTYSLSSTLTLSKADYEKHKVYACEVTHQGLSSPVTKSFNRGEC
B4: huAb3v2.5-AAA (conjugate)
heavy: EVQLVQSGAEVKKPGSSVKVSCKASGYTFSSYWMHWVRQAPGQGLEWIGLIHPESGSTNYNEMFKNRATLTVDRSTSTAYMELSSLRSEDTAVYYCAGGGRLYFDYWGQGTTVTVSSASTKGPSVFPLAPSSKSTSGGTAALGCLVKDYFPEPVTVSWNSGALTSGVHTFPAVLQSSGLYSLSSVVTVPSSSLGTQTYICNVNHKPSNTKVDKKV[letters of human IgG1 Fc with changes omitted]
light: B1 light
B5: huAb3v2.5-TX (conjugate)
heavy: EVQLVQSGAEVKKPGSSVKVSCKASGYTFSSYWMHWVRQAPGQGLEWIGLIHPESGSTNYNEMFKNRATLTVDRSTSTAYMELSSLRSEDTAVYYCAGGGRLYFDYWGQGTTVTVSSASTKGPSVFPLAPSSKSTSGGTAALGCLVKDYFPEPVTVSWNSGALTSGVHTFPAVLQSSGLYSLSSVVTVPSSSLGTQTYICNVNHKPSNTKVDKKV[letters of human IgG1 Fc with changes omitted]
light: B1 light
B6: huAb3v2.6-TX (conjugate)
heavy: EVQLVQSGAEVKKPGSSVKVSCKASGYTFSSYWMHWVRQAPGQGLEWIGLIHPESGSTNYNEMFKNRATLTVDRSTSTAYMELSSLRSEDTAVYYCAGGGRLYFDYWGQGTTVTVSSASTKGPSVFPLAPSSKSTSGGTAALGCLVKDYFPEPVTVSWNSGALTSGVHTFPAVLQSSGLYSLSSVVTVPSSSLGTQTYICNVNHKPSNTKVDKKV[letters of human IgG1 Fc with changes omitted]
light: B1 light with R34Q
B7: huAb13v1-CZ (conjugate)
heavy: EVQLQESGPGLVKPSETLSLTCAVTGYSITSGYSWHWIRQFPGNGLEWMGYIHSSGSTNYNPSLKSRISISRDTSKNQFFLKLSSVTAADTAVYYCAGYDDYFEYWGQGTTVTVSSASTKGPSVFPLAPSSKSTSGGTAALGCLVKDYFPEPVTVSWNSGALTSGVHTFPAVLQSSGLYSLSSVVTVPSSSLGTQTYICNVNHKPSNTKVDKKV[letters of human IgG1 Fc with changes omitted]
light: B3 light
B8: huAb13v1-TV (conjugate)
heavy: EVQLQESGPGLVKPSETLSLTCAVTGYSITSGYSWHWIRQFPGNGLEWMGYIHSSGSTNYNPSLKSRISISRDTSKNQFFLKLSSVTAADTAVYYCAGYDDYFEYWGQGTTVTVSSASTKGPSVFPLAPSSKSTSGGTAALGCLVKDYFPEPVTVSWNSGALTSGVHTFPAVLQSSGLYSLSSVVTVPSSSLGTQTYICNVNHKPSNTKVDKKV[letters of human IgG1 Fc with changes omitted]
light: B3 light
B9: huAb13v1-AAD (conjugate)
heavy: EVQLQESGPGLVKPSETLSLTCAVTGYSITSGYSWHWIRQFPGNGLEWMGYIHSSGSTNYNPSLKSRISISRDTSKNQFFLKLSSVTAADTAVYYCAGYDDYFEYWGQGTTVTVSSASTKGPSVFPLAPSSKSTSGGTAALGCLVKDYFPEPVTVSWNSGALTSGVHTFPAVLQSSGLYSLSSVVTVPSSSLGTQTYICNVNHKPSNTKVDKKV[letters of human IgG1 Fc with changes omitted]
light: B3 light
modifications: non-natural residues
B10: huAb13v1-TX (conjugate)
heavy: EVQLQESGPGLVKPSETLSLTCAVTGYSITSGYSWHWIRQFPGNGLEWMGYIHSSGSTNYNPSLKSRISISRDTSKNQFFLKLSSVTAADTAVYYCAGYDDYFEYWGQGTTVTVSSASTKGPSVFPLAPSSKSTSGGTAALGCLVKDYFPEPVTVSWNSGALTSGVHTFPAVLQSSGLYSLSSVVTVPSSSLGTQTYICNVNHKPSNTKVDKKV[letters of human IgG1 Fc with changes omitted]
light: B3 light
B11: huAb3v2.6-YY (conjugate)
heavy: EVQLVQSGAEVKKPGSSVKVSCKASGYTFSSYWMHWVRQAPGQGLEWIGLIHPESGSTNYNEMFKNRATLTVDRSTSTAYMELSSLRSEDTAVYYCAGGGRLYFDYWGQGTTVTVSSASTKGPSVFPLAPSSKSTSGGTAALGCLVKDYFPEPVTVSWNSGALTSGVHTFPAVLQSSGLYSLSSVVTVPSSSLGTQTYICNVNHKPSNTKVDKKV[letters of human IgG1 Fc with changes omitted]
light: B1 light with R34Q
B12: huAb3v2.6-AAD (conjugate)
heavy: EVQLVQSGAEVKKPGSSVKVSCKASGYTFSSYWMHWVRQAPGQGLEWIGLIHPESGSTNYNEMFKNRATLTVDRSTSTAYMELSSLRSEDTAVYYCAGGGRLYFDYWGQGTTVTVSSASTKGPSVFPLAPSSKSTSGGTAALGCLVKDYFPEPVTVSWNSGALTSGVHTFPAVLQSSGLYSLSSVVTVPSSSLGTQTYICNVNHKPSNTKVDKKV[letters of human IgG1 Fc with changes omitted]
light: B1 light with R34Q
modifications: non-natural residues
B13: huAb3v2.5-TV (conjugate)
heavy: EVQLVQSGAEVKKPGSSVKVSCKASGYTFSSYWMHWVRQAPGQGLEWIGLIHPESGSTNYNEMFKNRATLTVDRSTSTAYMELSSLRSEDTAVYYCAGGGRLYFDYWGQGTTVTVSSASTKGPSVFPLAPSSKSTSGGTAALGCLVKDYFPEPVTVSWNSGALTSGVHTFPAVLQSSGLYSLSSVVTVPSSSLGTQTYICNVNHKPSNTKVDKKV[letters of human IgG1 Fc with changes omitted]
light: B1 light
B14: huAb3v2.5-ZT (conjugate)
heavy: EVQLVQSGAEVKKPGSSVKVSCKASGYTFSSYWMHWVRQAPGQGLEWIGLIHPESGSTNYNEMFKNRATLTVDRSTSTAYMELSSLRSEDTAVYYCAGGGRLYFDYWGQGTTVTVSSASTKGPSVFPLAPSSKSTSGGTAALGCLVKDYFPEPVTVSWNSGALTSGVHTFPAVLQSSGLYSLSSVVTVPSSSLGTQTYICNVNHKPSNTKVDKKV[letters of human IgG1 Fc with changes omitted]
light: B1 light
B15: huAb3v2.6-TV (conjugate)
heavy: EVQLVQSGAEVKKPGSSVKVSCKASGYTFSSYWMHWVRQAPGQGLEWIGLIHPESGSTNYNEMFKNRATLTVDRSTSTAYMELSSLRSEDTAVYYCAGGGRLYFDYWGQGTTVTVSSASTKGPSVFPLAPSSKSTSGGTAALGCLVKDYFPEPVTVSWNSGALTSGVHTFPAVLQSSGLYSLSSVVTVPSSSLGTQTYICNVNHKPSNTKVDKKV[letters of human IgG1 Fc with changes omitted]
light: B1 light with R34Q
B16: huAb3v2.5-YY (conjugate)
heavy: EVQLVQSGAEVKKPGSSVKVSCKASGYTFSSYWMHWVRQAPGQGLEWIGLIHPESGSTNYNEMFKNRATLTVDRSTSTAYMELSSLRSEDTAVYYCAGGGRLYFDYWGQGTTVTVSSASTKGPSVFPLAPSSKSTSGGTAALGCLVKDYFPEPVTVSWNSGALTSGVHTFPAVLQSSGLYSLSSVVTVPSSSLGTQTYICNVNHKPSNTKVDKKV[letters of human IgG1 Fc with changes omitted]
light: B1 light
B17: huAb3v2.5-AAD (conjugate)
heavy: EVQLVQSGAEVKKPGSSVKVSCKASGYTFSSYWMHWVRQAPGQGLEWIGLIHPESGSTNYNEMFKNRATLTVDRSTSTAYMELSSLRSEDTAVYYCAGGGRLYFDYWGQGTTVTVSSASTKGPSVFPLAPSSKSTSGGTAALGCLVKDYFPEPVTVSWNSGALTSGVHTFPAVLQSSGLYSLSSVVTVPSSSLGTQTYICNVNHKPSNTKVDKKV[letters of human IgG1 Fc with changes omitted]
light: B1 light
modifications: non-natural residues
B18: huAb3v2.6-ZZ (conjugate)
heavy: EVQLVQSGAEVKKPGSSVKVSCKASGYTFSSYWMHWVRQAPGQGLEWIGLIHPESGSTNYNEMFKNRATLTVDRSTSTAYMELSSLRSEDTAVYYCAGGGRLYFDYWGQGTTVTVSSASTKGPSVFPLAPSSKSTSGGTAALGCLVKDYFPEPVTVSWNSGALTSGVHTFPAVLQSSGLYSLSSVVTVPSSSLGTQTYICNVNHKPSNTKVDKKV[letters of human IgG1 Fc with changes omitted]
light: B1 light with R34Q

Test system: NCI-H847 cells
Assay: In vitro cell viability assay (CellTiter-Glo), NCI-H847
Type: cell-based, human
Conditions: ADC conjugated to Bcl-xLi synthon CZ, read-out: Cytotoxicity (H847 Cell line IC50)
Description: The tumor cell lines HCC38 (breast cancer), NCI-H1650 (NSCLC) and NCI-H847 (small cell lung cancer cell line) were obtained from American Type Culture Collection (ATCC). Cells were grown in 96-well culture plates using recommended growth media overnight at a density of 5×10^3 (HCC38) or 20×10^3 (NCI-H847) or 40×10^3 (NCI-H1650) per well. The following day, treatments were added in fresh media to triplicate wells. Cellular viability was determined 5 days later using the CellTiter-Glo Luminescent Cell Viability Assay kit (Promega), as directed in the manufacturer's protocol. Cell viability was assessed as percentage of control untreated cells.

B1 and B2 are within 1.5-fold of each other in IC50: 1.57 nM for the first, 1.7 nM for the second.

Test system: NCI-H146 xenograft
Assay: NCI-H146 small cell lung cancer xenograft model
Type: in vivo, mouse
Conditions: 6 mg/kg/IP/QD × 1 (Table 24)

Going from B3 to B4, the “TGImax (%)” value falls from 76% to 65%.

Same assay, conditions: 6 mg/kg/IP/QDx1 (Table 23)

First: B1
Second: B2
The “TGD (%)” value of the first is lower: 122% for the first, 130% for the second.

Compared with B5, B6 is higher in “TGD (%)” value: 89% for the first, 130% for the second.

Going from B1 to B2, the “TGImax (%)” value rises from 92% to 93%.

First: B5
Second: B6
The “TGImax (%)” value of the first is lower: 86% for the first, 92% for the second.

Test system: NCI-H1650 xenograft
Assay: NCI-H1650 xenograft model
Type: in vivo, mouse
Conditions: NCI-H1650 xenograft (Table 27, first study), 10 mg/kg/day QD × 1/IP

In the case of B7, the “TGD (%)” value is reported as 100%.

In the case of B7, the “TGImax (%)” value is reported as 80%.

Test system: not listed separately
Assay: Percentage aggregation of ADCs by size exclusion chromatography
Type: physicochemical
Conditions: Table 21 ADCs, conjugation Method A, E or G, 3 mg scale
Description: The DAR and percentage aggregation of ADCs synthesized were determined by LC-MS and size exclusion chromatography (SEC), respectively.
Size exclusion chromatography general methodology Size exclusion chromatography was performed using a Shodex KW802.5 column in 0.2 M potassium phosphate pH 6.2 with 0.25 mM potassium chloride and 15% IPA at a flow rate of 0.75 ml/min. The peak area absorbance at 280 nm was determined for each of the high molecular weight and monomeric eluents by integration of the area under the curve. The % aggregate fraction of the conjugate sample was determined by dividing the peak area absorbance at 280 nm for the high molecular weight eluent by the sum of the peak area absorbances at 280 nM of the high molecular weight and monomeric eluents multiplied by 100%.

Compared with B8, B3 is higher in “% agg by SEC” value: 3% for the first, 20.2% for the second.

First: B9
Second: B7
The “% agg by SEC” value of the first is lower: 3.3% for the first, 3.9% for the second.

Compared with B10, B1 is higher in “% agg by SEC” value: 2.8% for the first, 15.6% for the second.

Compared with B11, B12 is lower in “% agg by SEC” value: 19.9% for the first, 11.9% for the second.

First: B2
Second: B5
The “% agg by SEC” value of the first is higher: 15% for the first, 8.9% for the second.

First: B13
Second: B14
The “% agg by SEC” value of the first is lower: 10.4% for the first, 20.1% for the second.

Compared with B15, B16 is higher in “% agg by SEC” value: 10.7% for the first, 16.2% for the second.

Going from B17 to B18, the “% agg by SEC” value rises from 11.3% to 20.7%.

Compared with B4, B6 is lower in “% agg by SEC” value: 14.8% for the first, 10.4% for the second.

Same assay, conditions: huAb3v2 variant ADCs with synthon CZ, conjugation Method A

Compared with B1, B2 is lower in “% agg by SEC” value: 15.6% for the first, 15% for the second.

Reference: patent US20200002421A1, “ANTI-B7-H3 ANTIBODIES AND ANTIBODY DRUG CONJUGATES” (AbbVie Inc., priority 2016, published 2020)
